Reference: PMC12136788
The other results are listed elsewhere or left out.

T1: UNK ZnF1-3 (human, UniProt Q9C0B0 31-174)
T1 sequence: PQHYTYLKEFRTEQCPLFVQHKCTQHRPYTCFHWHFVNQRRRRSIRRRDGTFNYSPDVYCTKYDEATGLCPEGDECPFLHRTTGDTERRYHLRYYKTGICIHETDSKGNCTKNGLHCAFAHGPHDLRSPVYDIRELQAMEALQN

B1: chr8:74858975:74858976:-_ENSG00000154582_ENST00000284811|hu_mus|hu_hu_hu_mus_True|48_48 (ssRNA)
RNA: GGGAGUUCUACAGUCCGACGAUCGACCUUGUAGGUAAAAUACAUGCACACUUUUGAUAGCACAUGUGAGGGGAUCUCUCUAAAAUUGACCUCAUUGGUUUCAUUCUCAGCAAACUGACCUGGACCACUCAACAUAGCCUUUAUCAACAGAGGAUUGAGCAUCA
B2: chr4:155069534:155069535:+_ENSMUSG00000074738_ENSMUST00000099265|mus_hu|FALSE|FALSE (ssRNA)
RNA: GGGAGUUCUACAGUCCGACGAUCGUGAGCCGGAGUGCCCAUGGCUCUUGCUGGAAGGGGCUCCAUGCCCUGGCCGCCUCUAUAAAGGCCUGCGGAGAGCGGGGAGAGCCCUGGAUGCGGCUGGCACAGCAGCGCAAGCCCAGGCAACAGAGGAUUGAGCAUCA
B3: chr14:56114876:56114877:+_ENSMUSG00000022211_ENSMUST00000076236|mus_mus|FALSE|FALSE (ssRNA)
RNA: GGGAGUUCUACAGUCCGACGAUCGAGGGCAUUGGCCUCGUCUGUGGCAAGCAGCCCUGGGUUCUUGCUCAGGUCCAGGUAUCGGAGGGAGCUGGCAAAGGCUGGGUUGGCCCCGAAGGUCUGGCCCAGUGCCUGGAGCCCUCGCAACAGAGGAUUGAGCAUCA
B4: 119484126_119485788_879_CDS_ENSMUSG00000027305_ENSMUST00000110801|mouse|control|control (ssRNA)
RNA: GGGAGUUCUACAGUCCGACGAUCCCCACGAACUCGGAGAUACAGAGUAUUGAACUGGGACCAAUCAUAAGACAGCUUCCUCUCAAAAGCACCCCGUGGAAUCCUGGAGAUCAUGGCACAGUAUCCACUUUGUCUACUGUCCCCCAACAGAGGAUUGAGCAUCA
B5: chr1:120316058:120316059:+_ENSMUSG00000064302_ENSMUST00000049404|mus_mus|motif|central (ssRNA)
RNA: GGGAGUUCUACAGUCCGACGAUCCACCAUGUGUGUCUGAAGAGCAGCUGGUAGGAUAUUAAAAGUCCAAUUUAAAUAACGGGUAGGCAAUAAAGGAGAGAGUGGCGGAGUGAUGAUCUACAACUGGGUCUGAAAUACUUCAUACAACAGAGGAUUGAGCAUCA
B6: chr3:176740097:176740098:-_ENSG00000177565_ENST00000430069|hu_hu|FALSE|FALSE (ssRNA)
RNA: GGGAGUUCUACAGUCCGACGAUCUGUUUUUUACACCACAAAAGGAGGCACUUUCAGUAUCUGUAAAAGGUAUUUAAUCCUAAAACAUACUUACCUAGAGAAUAAUUAAAACAGAAUUCAAUACAAUCUAGUAUCUAUUAGGAACAACAGAGGAUUGAGCAUCA
B7: 3369786_3369906_1343_3pUTR_ENSMUSG00000025899_ENSMUST00000053407|mouse|control|control (ssRNA)
RNA: GGGAGUUCUACAGUCCGACGAUCAGUCCUUGUUGAUGCCAAGGUAUUUUCCAUUUCCACAUCCGAUAUCUGCCACUAUGGAACCACUUGGCAAAGCUUUCAGGAACUCUACUAUGCGUGGCCAUGGGCUAUGUCUUGUGCUGCCAACAGAGGAUUGAGCAUCA
B8: chr1:27731043:27731044:-_ENSG00000158195_ENST00000430629|hu_hu|FALSE|FALSE (ssRNA)
RNA: GGGAGUUCUACAGUCCGACGAUCGAAGAGCUCCUUUCCCAUCCUCAGGGGAAGAGUGCCUGUUUUCAAACGGCAUCCCUACUACACAUAUACCCCCCUUCCCUAAAAUCUUGAUGUGGCAAACACACCCAAGAACCCACAGGACAACAGAGGAUUGAGCAUCA
B9: chr3:150289932:150289933:+_ENSG00000144895_ENST00000460851|hu_hu|hu_hu_hu_mus_False|8_58 (ssRNA)
RNA: GGGAGUUCUACAGUCCGACGAUCCUUGUAGUUUUUAACAUCCCAUACUUCCAUUUGUCCUCGAAGAUUUCCAAAUCCAGCUAAUACUAAUAUAUGUCCAUGAGGGCUAUAGAAGGCUGCGUUGCGAGGACCAGUUCCAAAGUCCAACAGAGGAUUGAGCAUCA
B10: chr18:42481571:42481572:+_ENSMUSG00000024491_ENSMUST00000091920|mus_mus|FALSE|FALSE (ssRNA)
RNA: GGGAGUUCUACAGUCCGACGAUCAAGGUAUUGGAUGAGUGCUGCUUCUGGAUCACCCUUAAAAGCAACCUGGAUAUUAACUAUGGUUCCAAAUUUGCUGAAGUGUUCGUUGAGCUUGGUAAUGUUGUUCAAUUCCUGGGGGAUCAACAGAGGAUUGAGCAUCA
B11: chr3:88516089:88516090:+_ENSMUSG00000028060_ENSMUST00000029696|mus_mus|FALSE|FALSE (ssRNA)
RNA: GGGAGUUCUACAGUCCGACGAUCAUUGACCCAAUAGUAGUAAAAUACAAAUAAAACUUUCUUUACAACAGAGUUGAGGCUAUUCAUUUGGAAAAGGCUAGAUCAGGUCAAACAUAUGUAGCAAUGACUCUGUCCUGGUAUCUCCAACAGAGGAUUGAGCAUCA
B12: 109687645_109687765_1801_CDS_ENSG00000148143_ENST00000277225|human|control|control (ssRNA)
RNA: GGGAGUUCUACAGUCCGACGAUCGCUUGAGCUCUCAUAAGACACCACACCUUCAUUCAGUGAGGAAGAAAUGCUUUCACUCUGGGAAUUCACAGCAUCCCAAUCUGACGUUGUACCCGUGUGACACUGUUUGUGAGCCCCAAGCAACAGAGGAUUGAGCAUCA
B13: chr1:161298228:161298229:+_ENSG00000143252_ENST00000367975|hu_hu|FALSE|FALSE (ssRNA)
RNA: GGGAGUUCUACAGUCCGACGAUCCAUGGGAAGAGACCAACUGUAGAUAGUAAUGUGGGGAGACAGAGGACGGUUUGAACCUAUAUUCUUAUUCCAGAACCGCUCCAUCUCUUCUUUGGCCGUGGUUCCCAAAGGAACAGCAUUCAACAGAGGAUUGAGCAUCA
B14: 135033492_135033612_2786_3pUTR_ENSMUSG00000046062_ENSMUST00000052529|mouse|control|control (ssRNA)
RNA: GGGAGUUCUACAGUCCGACGAUCCUAAUGAGACACAUUACCCAAAAAUAAUCAAACUGCAUCUCUAGAUACAAGUUGUUUCUUUAAAAACAUGUCCAAGGACAGCUGCCAGUGUUUGUUUUUAAGGGAAACUCUCAAGUAAGACAACAGAGGAUUGAGCAUCA
B15: chr2:230653580:230653581:-_ENSG00000153827_ENST00000389045|hu_hu|FALSE|FALSE (ssRNA)
RNA: GGGAGUUCUACAGUCCGACGAUCAGUAAGCCAUGUUGGGAUGUUUCCUGUCAUGAUUACUAAAGGAUCUUGAAGUUGCCUAUUUGCUUUUGCUGUUAACUUACUGUUAAUAAAUUCACUAGUUGGAAUAAUUUCCUUGCACAUCAACAGAGGAUUGAGCAUCA
B16: chr2:179515052:179515053:+_ENSMUSG00000000305_ENSMUST00000000314|mus_hu|mus_mus_mus_hu_False|1_28 (ssRNA)
RNA: GGGAGUUCUACAGUCCGACGAUCGCUGUCCCAUGCAGUCACCGUGAACGCCACCUGCUCGGAGGGGACCUGCAGCUCCCGGGUGGCGAAGACUGUCCCAUCUGCCCCGACUUUGAAGUCCAUGCUGUUGGUCUCAUACUGCAUCAACAGAGGAUUGAGCAUCA
B17: 94875820_94875940_949_CDS_ENSMUSG00000028126_ENSMUST00000107236|mouse|control|control (ssRNA)
RNA: GGGAGUUCUACAGUCCGACGAUCUCCUGGAAGCAACUUCUGCAGAAAUUCUGCUUCUUUAUGCUGGACGGUCUUAAUGAUGAAUUCAUCAUCACUGGACACAUAGAAGAGGGAACCACUAGCUCCAGAAUUGGAGAGUUCAAUCAACAGAGGAUUGAGCAUCA
B18: chr6:114281168:114281169:-_ENSG00000196591_ENST00000368632|hu_hu|FALSE|FALSE (ssRNA)
RNA: GGGAGUUCUACAGUCCGACGAUCUUCCAUUUUUCUGUAUAAGCCAUAAUUUAACAGCAAGUUAUGGGUCAUGCGGAUUCUAUGAGGCUUCAUGGGAUGACCCUGUCCAUAAUAAUAAUUUCCAAUAUCACAGAUUCACUAGAACAACAGAGGAUUGAGCAUCA
B19: chr7:54823571:54823572:-_ENSG00000132432_ENST00000352861|hu_hu|FALSE|FALSE (ssRNA)
RNA: GGGAGUUCUACAGUCCGACGAUCUCCCAUUAUAGCAAAUCCUAUUGCUGUUGCCAUGGCAAUCUUCUGGAAUUCUUUUCUAUCAGGUUUAGUGCAUCUUUUAACCAGCCGAAUGGAGUCCUUUACAAACUGCCGACUUGGCUCCAACAGAGGAUUGAGCAUCA
B20: chr7:65705844:65705845:+_ENSG00000169902_ENST00000304842|hu_mus|hu_hu_hu_mus_False|8_78 (ssRNA)
RNA: GGGAGUUCUACAGUCCGACGAUCAAACGGAUCUUUGUUACAUAAAUAAGGUGCCGGCUCCCCAUGCUUAACAAUGACCUCCAGAAGGAAGGCUUGCAUGGCAGAAUCUAGCACUUCAUCUGUGACACCAGCCUCAUCCAAGCGCAACAGAGGAUUGAGCAUCA
B21: chr1:183139419:183139420:-_ENSMUSG00000038733_ENSMUST00000162963|mus_hu|motif|central (ssRNA)
RNA: GGGAGUUCUACAGUCCGACGAUCUUAUCCCAGUCUCCUUCCAUGACAUGAUUUCGGAAUUUGGUAGCAGAAGGAUGUUCGGAACGACAUCCUGACUCUUGCAUGAGGAGAUCAACAGUCUGGUUGAGCCCUAAGCCAUUCAAGCAACAGAGGAUUGAGCAUCA
B22: chr2:9570881:9570882:+_ENSG00000119203_ENST00000238112|hu_mus|hu_hu_hu_mus_False|18_18 (ssRNA)
RNA: GGGAGUUCUACAGUCCGACGAUCACUUGUCUUCUGAAGGAACCAGGGCAGGGCUCCACAGUGAUCCAAAUGGAAAUGACUGAUCAACAGAAGGUCGAUCUCAGCUGGGUCGAUAAGAUCAAUAUAAGGAAGGGCAUCCAUUCCCAACAGAGGAUUGAGCAUCA

The binders below were run against T1, UNK ZnF1-3 (assay: nsRBNS (natural sequence RNA bind-n-seq); RBNS binding buffer (assumed for nsRBNS): 25 mM Tris pH 7.5, 150 mM KCl, 3 mM MgCl2, 0.01% Triton X-100, 500 ug/ml BSA, 20 U/ml SUPERase-In, 4 C; UNK is unkempt and MSI1 is Musashi-1; names of the RNAs are library labels; protein concentration not given here; high values mean tight binding).
In the case of B1, the binding signal is reported as 0.924 enrichment R. B2 was tested, and the binding signal was 0.861 enrichment R. B3 was tested, and the binding signal was 0.661 enrichment R. Binder B4 has a binding signal of 1.41 enrichment R. B5 showed a binding signal of 2.61 enrichment R. Work on B6 yielded a binding signal of 0.355 enrichment R. In the case of B7, the binding signal is reported as 0.678 enrichment R. For B8, the binding signal was 1.44 enrichment R. B9 was tested, and the binding signal was 1.12 enrichment R. With B10 the binding signal was 0.951 enrichment R. Binder B11 has a binding signal of 2.78 enrichment R. For B12, the binding signal was 1.05 enrichment R. B13 showed a binding signal of 1.11 enrichment R. Binder B14 has a binding signal of 0.949 enrichment R. Work on B15 yielded a binding signal of 0.595 enrichment R. For B16, the binding signal was 0.552 enrichment R. B17 gave a binding signal of 1.07 enrichment R. B18 was tested, and the binding signal was 1.02 enrichment R. B19 gave a binding signal of 0.682 enrichment R. Binder B20 has a binding signal of 0.56 enrichment R. B21 gave a binding signal of 0.544 enrichment R. For B22, the binding signal was 1.17 enrichment R.
